Data taken from PMC4336329 (PLoS ONE, 2015).
The whole screen tested about 310,000 compounds, of which about 14,000 (4.5%) showed an effect of 50% or more. Effects have a minus sign here. The list shows a part of the results.

Each compound was assayed against human ether-à-go-go-related gene (hERG) potassium channel (human, UniProt Q12809) (assay: primary screen, population patch clamp on CHO cells stably expressing hERG).
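Note: peak tail current of the secondary pulse compared with the same well before compound.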

Sequence of human ether-à-go-go-related gene (hERG) potassium channel (Q12809 whole entry, looked up): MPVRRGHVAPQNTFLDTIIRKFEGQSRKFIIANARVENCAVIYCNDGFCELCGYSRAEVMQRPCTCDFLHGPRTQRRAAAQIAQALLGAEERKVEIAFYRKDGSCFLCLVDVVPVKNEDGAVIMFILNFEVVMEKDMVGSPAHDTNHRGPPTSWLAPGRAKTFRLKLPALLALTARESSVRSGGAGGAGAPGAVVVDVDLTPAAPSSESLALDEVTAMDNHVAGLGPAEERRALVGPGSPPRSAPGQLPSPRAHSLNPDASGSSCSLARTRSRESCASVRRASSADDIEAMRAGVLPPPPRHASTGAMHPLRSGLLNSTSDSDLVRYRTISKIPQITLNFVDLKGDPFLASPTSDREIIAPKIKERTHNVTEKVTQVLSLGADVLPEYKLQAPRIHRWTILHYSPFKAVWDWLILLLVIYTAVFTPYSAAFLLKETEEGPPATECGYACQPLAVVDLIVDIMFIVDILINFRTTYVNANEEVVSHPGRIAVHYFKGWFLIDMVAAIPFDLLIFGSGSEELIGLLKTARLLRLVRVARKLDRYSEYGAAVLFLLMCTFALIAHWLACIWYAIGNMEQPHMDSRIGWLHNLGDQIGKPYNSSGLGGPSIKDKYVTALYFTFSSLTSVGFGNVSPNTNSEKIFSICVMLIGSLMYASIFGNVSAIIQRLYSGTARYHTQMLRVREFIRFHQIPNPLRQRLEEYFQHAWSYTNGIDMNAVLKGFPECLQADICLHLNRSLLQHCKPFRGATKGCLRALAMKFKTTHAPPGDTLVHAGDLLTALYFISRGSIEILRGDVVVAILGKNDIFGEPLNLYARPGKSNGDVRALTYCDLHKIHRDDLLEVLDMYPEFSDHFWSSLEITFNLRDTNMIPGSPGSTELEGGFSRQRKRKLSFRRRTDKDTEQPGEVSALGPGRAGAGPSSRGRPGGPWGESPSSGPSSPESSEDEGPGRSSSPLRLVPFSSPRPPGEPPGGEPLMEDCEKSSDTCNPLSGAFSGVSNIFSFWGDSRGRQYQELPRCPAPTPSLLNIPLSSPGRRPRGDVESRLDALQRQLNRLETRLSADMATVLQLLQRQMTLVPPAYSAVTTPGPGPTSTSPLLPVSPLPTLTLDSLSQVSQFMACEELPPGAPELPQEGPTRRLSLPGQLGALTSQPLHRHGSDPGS

Compound	hERG current change (%, negative = inhibition) at 10uM [%]
Cc1c(NC(=O)COC(=O)COc2ccc(Nc3ccccc3)cc2)c(=O)n(-c2ccccc2)n1C	-2.4
COc1ccc(-c2nc(CN3CCN(C(=O)c4ccco4)CC3)c(C)o2)c(OC)c1C	-18
Cc1ccc(C(=O)c2cc3c(cc2N)OCCO3)cc1	-11.4
CCOC(=O)C1=C(C)Nc2nnnn2C1c1cccc(OC)c1OC (stereo not drawn)	-9.89
O=C(Nn1c(-c2ccc(Br)cc2)nc2ccccc2c1=O)c1ccc([N+](=O)[O-])cc1	-66.6
Nc1ccn(-c2ccccc2)c(=O)c1	3.69
Cc1ccc(C)c(/C=C2\N=C(c3ccccc3F)OC2=O)c1	17.5
Cn1c(=O)n(C)c2cc(NS(=O)(=O)c3ccc4c(c3)CCCC4)ccc21	-25.6
O=C(OCc1cc(=O)n2cc(Br)ccc2n1)C1COc2ccccc2O1 (stereo not drawn)	-15.5
O=C(COC(=O)C1CCC1)NC(=O)c1ccccc1	17.1
COc1ccc(C2c3c(-c4ccccc4O)n[nH]c3C(=O)N2CCc2ccc(OC)c(OC)c2)cc1 (stereo not drawn)	-10.8
COc1ccc(C(=O)Nc2ccnn2C2CCN(Cc3cnn(C)c3)CC2)cc1	6.81
N#CC1(c2ccccc2)CCC(=NNS(=O)(=O)c2ccccc2)CC1 (stereo not drawn)	-11
Cc1ccc(-c2nc3sc4c(c3c(=O)n2N)CCCC4)cc1	-10.1
COc1ccc(OC)c(NC(=O)N2CCCC(C(=O)c3ccccc3OC)C2)c1 (stereo not drawn)	5.87
CCOC(=O)CN1C(=O)C(=O)N(Cc2c(F)cccc2Cl)C1=O	17.6
CC12CCC(C(=O)Nc3cc(Cl)ccc3Cl)(C(Br)C1=O)C2(C)C (stereo not drawn)	3.87
CC1=NNC(=O)C1C(c1cccc(O)c1)C(C#N)C#N (stereo not drawn)	14.3
CC(C)Cc1csc(NC(=O)c2ccc(F)cc2)c1C(=O)O	2.82
COc1ccccc1NC(=O)C(C)OC(=O)CC1CCCCC1 (stereo not drawn)	-15.7
O=C1CCSc2ccc(Cl)cc2N1Cc1ccccc1	8.99
CCOC(=O)Nc1cc(C)c(Cl)cc1OC	-3.7
COCCCn1nnnc1SCC(=O)Nc1nc(C)c(C)s1	7.53

Compound	hERG current change (%, negative = inhibition) at 10uM [%]
CC1=C(C)[N+](=O)C2CCCCC2N1[O-] (stereo not drawn)	0.526
O=C(c1ccc(-c2ccc(Cl)cc2)o1)N1CCN(c2ccc([N+](=O)[O-])cc2Cl)CC1	3.9
NC(=O)c1oc2ccccc2c1NC(=O)CN1CCCCC1	13.9
CC1CC(NC(=O)c2c(O)nc3sccn3c2=O)CC(C)(C)C1 (stereo not drawn)	-10.8
C/C(=N\NC(=O)CC1N=C(Cc2ccccc2)NNC1=O)c1ccncc1 (stereo not drawn)	14.7
N=c1c(S(=O)(=O)c2ccccc2)cc2c(=O)n3ccccc3nc2n1CC1CCCO1 (stereo not drawn)	-34
CC(C)OP(=O)(c1ccc(N(C)C)cc1)C(Nc1ccccc1)c1cccnc1 (stereo not drawn)	-13.1
O=C1NCCCC1C(=O)Nc1ccccn1 (stereo not drawn)	22.8
Cc1cccc(NC(=O)c2cccnc2)c1	-0.778
COC(=O)CCCC1=CC2=CC(=O)C(C)(OC(=O)CCc3ccccc3)C(=O)C2=CO1 (stereo not drawn)	9.17
CCc1ccc(CN(C)C(=O)CC2C(=O)NCCN2Cc2ccoc2)cc1 (stereo not drawn)	4.18
COc1ccc(CC(=O)Nc2c(C(=O)N3CCN(c4ncccn4)CC3)oc3ccccc23)cc1OC	-46.8
Cc1ccc(C(=O)COC(=O)CNC(=O)CN2C(=O)c3ccccc3C2=O)cc1	24.1
O=C(CCn1nnc(-c2cccs2)n1)NCc1ccccc1Cl	-28.1
CN1CCN(S(=O)(=O)c2ccc(NCc3ccc4c(c3)OCO4)nc2)CC1	0.455
Cc1ccccc1CC(=O)Nc1ccc(C(=O)N2CCCC2)cc1	17.2
CN(C)S(=O)(=O)c1ccc(Cl)c(NC(=O)COC(=O)/C=C/c2ccco2)c1	16.7
O=C(CN1C(=O)NC2(CCSC2)C1=O)NCc1ccccc1 (stereo not drawn)	13.5
Cl.OC(COC(c1ccc(Cl)cc1)c1ccc(Cl)cc1)CN1CCN(c2ccccn2)CC1 (stereo not drawn)	-82.4
COc1ccc(CNC(=O)C(=O)NCC2OCCN2S(=O)(=O)c2ccc(C)cc2)cc1 (stereo not drawn)	28.1
FC(F)(F)c1nnc2ccc(Cl)nn12	16.7
O=S(=O)(NCc1csc(-c2cccs2)n1)c1ccc(Cl)cc1	-25
Cc1ccc2nc(-c3ccccc3)cc(C(=O)N3CCN(c4ccccc4O)CC3)c2c1	-3.24

Compound	hERG current change (%, negative = inhibition) at 10uM [%]
COc1ccc(NC(=O)CN2CCc3ccccc3C2)c([N+](=O)[O-])c1	25.4
O=c1[nH]c(C2CCN(S(=O)(=O)c3ccc(S(=O)(=O)NC4CC4)cc3)CC2)nc2c1nnn2Cc1cccc(F)c1	-16.5
C=CCSc1nc2sc(-c3ccccc3)cc2c(=O)n1N	21.6
CCN(CC)S(=O)(=O)c1ccc(C(=O)OCCNC(=O)c2cccnc2)cc1	-2.68
CC(C)C[C@H](NC(=O)[C@@H](O)[C@H](N)Cc1ccccc1)C(=O)O	11.4
CCOC(=O)C1(CCOC)CCN(Cc2nc(C(C)C)cs2)CC1	41
Cc1scc(C(=O)NNC(=S)NCC(C)C)c1C	19.5
O=[N+]([O-])c1ccc(-c2nc3ccc([N+](=O)[O-])cc3[nH]2)cc1	-27.9
O=C(c1ccccc1)c1c[nH]c(C(=O)NCCCn2ccnc2)c1	5.27
O=[N+]([O-])c1cccc(/C=N/N=C\c2ccccc2)c1	29
On1nnc2ccccc21	4.77
COc1ccc(-c2oc3cccnc3c2C#CCO)cc1	9.84
COc1ccc(C2Nc3ccccc3C(=O)N2NC(C)=O)cc1OC (stereo not drawn)	17.6
Cc1ccc(NC(=O)C2c3ccccc3Oc3ccccc32)nc1	4.54
CCOc1ccc(CC2c3cc(OCC)c(OCC)cc3CCN2C(=O)CN2CCN(C)CC2)cc1OCC.Cl (stereo not drawn)	3.3
COc1ccc(/C=N/Nc2cc(C)nc3ccccc23)cc1	-63.3
O=c1cc(N/N=C/c2ccccc2)[nH]c(=O)[nH]1	1.85
S=c1[nH]nc(-c2ccc(Cl)cc2)n1/N=C/c1cccs1	16.8
CCN(c1cc(C)cc(C)c1)S(=O)(=O)c1nnc(NC(=O)c2ccco2)s1	11.2
CCOC(=O)C1=CN(CC2CCCO2)C=C(C(=O)OCC)C1c1ccccc1C(F)(F)F (stereo not drawn)	-64.7
Nc1nc2ccccc2nc1N1CCCC1	-12
Cc1c(CCC(=O)O)c(=O)oc2cc3oc4c(c3cc12)CCCC4	11
CCN(CC)S(=O)(=O)c1cccc(-c2nnc(SCCOc3ccccc3)o2)c1	-11.4

Compound	hERG current change (%, negative = inhibition) at 10uM [%]
Cc1ccc(NC(=O)Cn2cncc2-c2ccc([N+](=O)[O-])cc2)cc1C	-12.8
CCn1nc(C)c(CN2CCCC(C(=O)c3cccc(OC(C)C)c3)C2)c1C (stereo not drawn)	-39.5
Cc1ccnc(N2CCCC(C(=O)Nc3cc(F)ccc3C)C2)n1 (stereo not drawn)	2.66
O=C1CCN(CCCc2ccccc2)CCN1CCO	2.01
O=C(/C=N/O)Nc1cccnc1	15.7
O=c1[nH]cnc2onc(-c3ccc(F)cc3)c12	12.5
C=CCN1C(=O)/C(=C/c2ccc(-c3ccc(F)cc3)o2)SC1=S	3.08
Cc1ccc(CNC(=O)c2oc3ccc(S(=O)(=O)N4CCOCC4)cc3c2C)cc1	-10.5
CCCCn1c(CN2CCN(c3ccccc3)CC2)nc2c1c(=O)n(C)c(=O)n2C	-45.7
O=C(N/N=C/c1ccoc1)c1ccccc1	17.9
Cc1c(CN2CCC(C)CC2)c(=O)n(-c2ccccc2)n1C	7.28
O=C(NC(=S)Nc1nc2c(s1)CSc1ccccc1-2)c1ccccc1	1.22
CCOC(=O)c1ccccc1N/C=C1\CCCCC1=O	-13.3
CC(C)(CNCC(O)c1ccccc1)N1CCOCC1 (stereo not drawn)	-2.9
COc1ccc(C)cc1NC(=O)c1nnn(CCc2ccccc2)c1N	-6.8
Cc1cc(=O)oc2c1c(C)nn2-c1ccc(Br)cc1	19.3
CN(Cc1ccccc1F)c1nc(-c2cccs2)nc2ccccc12	11.3
CCc1ccc(CN(C)C(=O)CCc2nnc(Cc3cccc(C)c3)o2)nc1	-46.2
FC(F)(F)c1cccc(CON=C2CCN(c3ncc(C(F)(F)F)cc3Cl)CC2)c1	-3.51
CCc1ccc2[nH]c(=O)c(C(c3nnnn3CCOC)N3CCN(c4ccccc4F)CC3)cc2c1 (stereo not drawn)	-9.36
Cc1ccc2cc(CN(c3cccc(C)c3C)S(=O)(=O)c3ccccc3)c(=O)[nH]c2c1	8.52
